Measured values published in the supplement of paper PMC13016719.

Tests used:
Experiment in all cases: Reference broth microdilution (once per isolate) and two commercial panels; inhibitor fixed at 4 µg/mL.
ceftazidime = compound: CC(C)(O/N=C(\C(=O)N[C@@H]1C(=O)N2C(C(=O)[O-])=C(C[n+]3ccccc3)CS[C@H]12)c1csc(N)n1)C(=O)O [ceftazidime] (with: avibactam 4 µg/mL)
imipenem = compound: C[C@@H](O)[C@H]1C(=O)N2C(C(=O)O)=C(SCCNC=N)C[C@H]12 [imipenem]; details: reference broth microdilution
ceftolozane = compound: Cn1c(N)c(NC(=O)NCCN)c[n+]1CC1=C(C(=O)[O-])N2C(=O)[C@@H](NC(=O)/C(=N\OC(C)(C)C(=O)O)c3nsc(N)n3)[C@H]2SC1 [ceftolozane] (with: tazobactam 4 µg/mL)

Test System | MIC (ceftazidime; BD Phoenix panel) | MIC (ceftazidime; reference broth microdilution) | MIC (imipenem) | MIC (ceftolozane; BD Phoenix panel) | MIC (ceftolozane; reference broth microdilution) | MIC (ceftazidime; Sensititre panel) | MIC (ceftolozane; Sensititre panel)
Pseudomonas aeruginosa isolate 84 (PDC allele: blaPDC-56) | 8 µg/mL | 8 µg/mL | > 8 µg/mL | 2 µg/mL | 2 µg/mL | – | –
Pseudomonas aeruginosa isolate 44 (PDC allele: blaPDC-1) | 1 µg/mL | ≤ 4 µg/mL | 8 µg/mL | ≤ 1 µg/mL | ≤ 1 µg/mL | ≤ 4 µg/mL | 2 µg/mL
Pseudomonas aeruginosa isolate 37 (PDC allele: blaPDC-19a) | 8 µg/mL | ≤ 4 µg/mL | ≤ 1 µg/mL | ≤ 1 µg/mL | ≤ 1 µg/mL | 8 µg/mL | 2 µg/mL
Pseudomonas aeruginosa isolate 31 (ESBL gene: blaPAC-1, PDC allele: blaPDC-36) | > 8 µg/mL | ≥ 32 µg/mL | 8 µg/mL | > 8 µg/mL | ≥ 16 µg/mL | – | –
Pseudomonas aeruginosa isolate 59 (PDC allele: blaPDC-121) | > 8 µg/mL | 16 µg/mL | 8 µg/mL | 2 µg/mL | 2 µg/mL | 16 µg/mL | 2 µg/mL
Pseudomonas aeruginosa isolate 61 (PDC allele: blaPDC-402) | > 8 µg/mL | 8 µg/mL | 8 µg/mL | 2 µg/mL | ≤ 1 µg/mL | – | –
Pseudomonas aeruginosa isolate 124 (PDC allele: blaPDC-117) | 4 µg/mL | ≤ 4 µg/mL | ≤ 1 µg/mL | ≤ 1 µg/mL | 4 µg/mL | – | –
Pseudomonas aeruginosa isolate 186 (PDC allele: blaPDC-1) | 8 µg/mL | ≤ 4 µg/mL | > 8 µg/mL | 4 µg/mL | 4 µg/mL | – | –
Pseudomonas aeruginosa isolate 43 (PDC allele: blaPDC-24) | 4 µg/mL | 8 µg/mL | 4 µg/mL | 2 µg/mL | 8 µg/mL | – | –
Pseudomonas aeruginosa isolate 122 (PDC allele: blaPDC-35, carbapenemase gene: blaKPC-2) | 8 µg/mL | ≤ 4 µg/mL | > 8 µg/mL | > 8 µg/mL | 8 µg/mL | – | –

MIC of multidrug-resistant clinical P. aeruginosa isolates by reference broth microdilution, Sensititre or Phoenix panel; µg/mL of the β-lactam, with the inhibitor fixed at 4 µg/mL where named; higher = less susceptible; each panel covers only a few steps. No active / inactive call per row; the paper applies CLSI M100 breakpoints. The methods often differ by one or more steps on the same isolate. Several isolates can come from one patient. PDC is the chromosomal AmpC β-lactamase of the species; the number names its allele. Isolates are numbered anew.
